# The supplement of paper PMC6531468
# Some of the results follow. Values come from read counts of a selection and are noisy. Each score is taken over the longer molecules that contain the sequence shown.
# Columns and labels:
# Assay in all cases: 6-mer SELEX enrichment z-score vs GST control; IMP3 is the RNA-binding protein IGF2BP3; higher = more enriched by binding
# IMP3 KH1-4 = settings: construct: KH1-4 (164-579); SELEX round: R4
# Method: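 SELEX-seq with GST-tagged IMP3 KH1-4 (Pro164-Lys579) and an N40 RNA pool, round 4. 6-mer z-score of sequence-tag enrichment normalised to the corresponding GST SELEX round; RNA k-mers written as DNA (T for U).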
# IMP3 RRM1-2 = settings: construct: RRM1-2 (1-163); SELEX round: R2
# IMP3 RRM1-2, sequence (chain, as listed by the source): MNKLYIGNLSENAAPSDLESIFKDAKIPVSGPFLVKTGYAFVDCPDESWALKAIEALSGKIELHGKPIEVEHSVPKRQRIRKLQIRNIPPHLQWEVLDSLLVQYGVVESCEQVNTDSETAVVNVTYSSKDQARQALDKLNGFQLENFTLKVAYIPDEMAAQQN
# Method: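 SELEX-seq with GST-tagged IMP3 RRM1-2 (Met1-Asn163) and an N40 RNA pool, round 2. 6-mer enrichment z-score normalised to GST SELEX. RNA written as DNA (T = U).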
# IMP3 full-length = IMP3 full-length (UniProt O00425); settings: construct: FL IMP3 (1-579); SELEX round: R4
# UniProt O00425, sequence (O00425 whole entry): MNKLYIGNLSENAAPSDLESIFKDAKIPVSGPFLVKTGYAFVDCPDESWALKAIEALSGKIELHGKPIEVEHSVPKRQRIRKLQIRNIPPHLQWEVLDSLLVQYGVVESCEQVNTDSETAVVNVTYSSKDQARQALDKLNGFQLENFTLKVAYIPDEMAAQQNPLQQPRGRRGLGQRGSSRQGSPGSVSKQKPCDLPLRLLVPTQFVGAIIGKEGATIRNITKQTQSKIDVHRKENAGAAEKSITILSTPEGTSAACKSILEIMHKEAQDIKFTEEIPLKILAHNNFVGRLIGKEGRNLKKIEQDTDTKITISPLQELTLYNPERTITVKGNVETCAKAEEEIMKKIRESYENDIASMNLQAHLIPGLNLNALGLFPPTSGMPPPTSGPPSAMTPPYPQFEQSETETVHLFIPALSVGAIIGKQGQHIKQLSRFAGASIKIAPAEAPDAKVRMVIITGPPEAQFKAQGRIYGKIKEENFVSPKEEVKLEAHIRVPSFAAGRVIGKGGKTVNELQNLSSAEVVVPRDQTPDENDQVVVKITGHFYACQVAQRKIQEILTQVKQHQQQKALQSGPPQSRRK
# Method: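 SELEX-seq with GST-tagged full-length IMP3 and an N40 RNA pool, round 4. Each 6-mer is scored as an enrichment z-score of sequence tags containing it, normalised to the matching GST SELEX round. RNA written as DNA (T = U).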
# IMP3 KH1-2 = settings: construct: KH1-2 (164-376); SELEX round: R4
# IMP3 KH1-2, sequence (chain, as listed by the source): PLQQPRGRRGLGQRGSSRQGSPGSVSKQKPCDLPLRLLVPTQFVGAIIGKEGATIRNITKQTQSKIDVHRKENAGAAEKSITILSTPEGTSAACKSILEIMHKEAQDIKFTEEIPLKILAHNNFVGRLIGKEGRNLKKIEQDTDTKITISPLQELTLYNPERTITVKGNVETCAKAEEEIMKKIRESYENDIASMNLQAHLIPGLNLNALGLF
# Method: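 SELEX-seq with GST-tagged IMP3 KH1-2 (Pro164-Phe376) and an N40 RNA pool, round 4 (stringent 300/600 mM KCl washes). 6-mer z-score of sequence-tag enrichment normalised to the corresponding GST SELEX round; RNA k-mers written as DNA (T for U).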
# IMP3 KH3-4 = settings: construct: KH3-4 (377-579); SELEX round: R4
# IMP3 KH3-4, sequence (chain, as listed by the source): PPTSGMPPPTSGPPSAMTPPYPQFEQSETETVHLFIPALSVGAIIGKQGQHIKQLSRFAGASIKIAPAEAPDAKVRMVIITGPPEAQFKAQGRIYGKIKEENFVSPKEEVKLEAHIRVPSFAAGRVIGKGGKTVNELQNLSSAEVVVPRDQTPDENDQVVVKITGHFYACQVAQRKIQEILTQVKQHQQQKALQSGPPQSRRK
# Method: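 SELEX-seq with GST-tagged IMP3 KH3-4 (Pro377-Lys579) and an N40 RNA pool, round 4. 6-mer z-score of sequence-tag enrichment normalised to the corresponding GST SELEX round; RNA k-mers written as DNA (T for U).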
# IMP3 KH1-4, sequence (chain, as listed by the source): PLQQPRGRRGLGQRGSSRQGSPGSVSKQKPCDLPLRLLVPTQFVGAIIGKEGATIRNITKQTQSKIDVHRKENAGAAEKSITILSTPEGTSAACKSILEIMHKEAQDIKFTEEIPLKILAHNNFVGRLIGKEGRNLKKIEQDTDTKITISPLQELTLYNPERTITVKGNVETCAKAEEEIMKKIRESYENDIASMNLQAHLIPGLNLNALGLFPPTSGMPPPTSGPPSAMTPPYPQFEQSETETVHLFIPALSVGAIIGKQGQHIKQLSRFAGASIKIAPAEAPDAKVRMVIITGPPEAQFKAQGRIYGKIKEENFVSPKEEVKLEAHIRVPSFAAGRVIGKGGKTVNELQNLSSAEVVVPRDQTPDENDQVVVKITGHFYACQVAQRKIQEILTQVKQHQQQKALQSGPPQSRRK
Sequence,6-mer SELEX enrichment z-score (IMP3 KH1-4),6-mer SELEX enrichment z-score (IMP3 RRM1-2),6-mer SELEX enrichment z-score (IMP3 full-length),6-mer SELEX enrichment z-score (IMP3 KH1-2),6-mer SELEX enrichment z-score (IMP3 KH3-4)
GGGCAA,0.043,0.118,0.613,0.179,0.388
GTCTGT,0.052,0.308,0.183,0.045,0.116
TTGCAA,0.375,0.015,-0.068,0.244,0.299
ACATGT,1.18,0.741,0.946,0.734,0.962
CTGCTT,0.32,0.193,0.093,0.411,0.231
TGCAAA,-0.153,-0.608,-0.454,-0.056,-0.042
GCGACA,-0.333,0.023,0.791,-0.382,-0.514
CCAGGA,-0.228,-0.491,-0.471,-0.311,-0.442
TCGGTT,0.078,0.546,0.232,0.071,0.301
TGTTGG,-0.041,0.42,0.107,0.058,0.169
ATGCTC,-0.105,0.089,0.034,-0.029,-0.161
CCCTTC,-0.105,0.174,-0.324,0.016,-0.616
GGCATA,1.31,0.435,1.64,0.71,1.33
GTAGCA,-0.274,0.161,0.159,-0.369,-0.317
CGCTTT,0.311,0.212,0.105,0.423,0.34
GCCCTC,-0.668,0.022,-0.304,-0.503,-0.967
TAATAA,1.67,-0.773,-0.167,1.64,2.93
TCACAA,0.731,2.31,1.37,1.04,0.235
CCTAAA,-1.81,-1.58,-2.23,-1.73,-1.83
GTGAAG,0.175,-0.538,-0.361,0.084,0.225
CCCCAT,0.404,-0.218,-0.007,0.516,-0.393
CTTACG,-0.088,-0.093,-0.314,-0.163,-0.173
AGACTG,-0.108,-0.754,-0.619,-0.161,-0.17

Sequence,6-mer SELEX enrichment z-score (IMP3 KH1-4),6-mer SELEX enrichment z-score (IMP3 RRM1-2),6-mer SELEX enrichment z-score (IMP3 full-length),6-mer SELEX enrichment z-score (IMP3 KH1-2),6-mer SELEX enrichment z-score (IMP3 KH3-4)
AAAAGC,-2.48,-1.93,-2.56,-2.33,-2.04
GTACAG,0.355,0.001,0.492,0.204,0.135
GCAGGT,0.371,0.391,0.616,0.302,0.262
AGAGAC,-0.369,-0.986,-0.66,-0.38,-0.347
CGCTGA,-0.553,-0.454,-0.404,-0.403,-0.54
CGAGGG,-0.525,-0.23,-0.019,-0.267,-0.333
GACTTC,-0.3,0.067,-0.504,-0.283,-0.422
GATGAT,1.51,-0.523,-0.045,1.02,1.7
GCCCAC,-1.41,-0.098,-0.584,-1.13,-1.82
TCATGA,0.536,0.882,0.885,0.415,0.482
TGAAGA,0.676,-1.12,-0.713,0.341,0.957
AGAAGT,0.42,-0.584,-0.162,0.206,0.623
CTGGGA,0.049,-0.16,0.021,0.105,0.089
GTCGAA,-0.762,-0.44,-0.426,-0.735,-0.561
GCACCC,-0.268,-0.377,0.22,-0.451,-1.1
GGTCCG,0.208,0.025,0.642,0.3,-0.013
CTTGCC,-0.666,0.17,-0.485,-0.628,-0.861
CTGGGT,-0.171,0.332,0.104,-0.045,0.021
GTATGA,0.166,-0.325,-0.363,-0.075,0.393
CGGGGC,1.03,-0.122,1.05,1.25,1.09
GGCGAG,-0.301,-0.124,0.57,-0.181,-0.05
GCACGG,1.02,0.197,1.71,0.737,0.387
